The text below walks through data of PMC10726135.

The other results are listed elsewhere or left out. At the low end of the ranking the order means little. The protein was read in a cell extract, so binding may be indirect.

The assay has as its target T1, HNF4alpha8 (COS-7 nuclear extract) (UniProt P41235-5).
T1 sequence: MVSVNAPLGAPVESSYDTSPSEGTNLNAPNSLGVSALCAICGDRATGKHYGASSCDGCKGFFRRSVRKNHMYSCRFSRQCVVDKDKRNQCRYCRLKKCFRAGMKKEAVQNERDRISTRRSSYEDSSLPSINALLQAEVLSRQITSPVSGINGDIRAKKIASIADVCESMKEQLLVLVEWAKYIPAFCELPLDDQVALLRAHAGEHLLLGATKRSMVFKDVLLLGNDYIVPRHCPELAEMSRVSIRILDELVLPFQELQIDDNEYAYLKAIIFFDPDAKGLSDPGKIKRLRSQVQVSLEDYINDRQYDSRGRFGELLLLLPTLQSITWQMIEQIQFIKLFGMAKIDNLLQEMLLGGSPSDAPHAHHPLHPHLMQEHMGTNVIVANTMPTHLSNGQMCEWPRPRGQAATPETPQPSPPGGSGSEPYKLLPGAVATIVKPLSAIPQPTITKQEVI
The experiment in a line: protein-binding microarray. Particulars: COS-7 nuclear extract on double-stranded Agilent 4x180k PBM; binding buffer, salt, pH and temperature not given; high values mean tight binding; double strand, one strand shown; sequences stand for … in …GCCTAGGGAGATTAGAGTATCGGTCGA
Turning to AGTCAGTGAAGGAGCTGACTAGATTTCTGT, the binding signal (log2 normalized intensity) was determined as 0.563.

For the sequence TTCAAGTAGAGCTTCACCTCTAAATCTATT, the binding signal (log2 normalized intensity) was -1.36.

For the sequence TTGGTCTTATTATCTTCAATGATAAGGAAT, the binding signal (log2 normalized intensity) is 1.05.

Regarding AAAAATCCTGCCAAACCAGTTCAACAAGAA, the binding signal (log2 normalized intensity) was -1.33.

Take AACTCTGGAGTTTGCCCTTCACAAATTAGA: the binding signal (log2 normalized intensity) was 3.5.

As for AGCAGTGACCATCCCAAAGCTTTTTGATTG, the binding signal (log2 normalized intensity) was -1.26.

On to TGTCAAGATTGAGACATTCATGGCTTTTGT, for which the binding signal (log2 normalized intensity) stood at 0.467.

Consider GCTGCCCTGCACCTGGAGCCCTTAGGGTCA, for which the binding signal (log2 normalized intensity) was 3.22.

Take TTCATCTCACAGAGTGGAGTCTTCCGTTTG: the binding signal (log2 normalized intensity) stood at 0.328.

With AGTGCATGAATCAACTGTTGTGGACCACGT, the binding signal (log2 normalized intensity) was 2.2.

As for AGTTGGGAAAAGTAACACAGTAAGAGACTT, the binding signal (log2 normalized intensity) is -1.32.

For AAATGAGAATGAGACCTGCTAGGCTGCATT, the binding signal (log2 normalized intensity) is -1.21.

For TGGCTGGCTTTAGAGTTGTAGCTCTCAGCT, the binding signal (log2 normalized intensity) is -1.32.

As for GACCTGGGAATTCAAGGAATGCAGCTCAGA, the binding signal (log2 normalized intensity) is -1.26.

Take TGCGACAGGGAGATTTCCTGGGAGAGAAAA: the binding signal (log2 normalized intensity) was -1.37.

Take TGGTAACCGGAGCAAAGGTTACTCTTGTTA: the binding signal (log2 normalized intensity) came to 3.36.

As to ATCTAGTTTCCTAGCTCACTGATAAGAAAG, the binding signal (log2 normalized intensity) was -1.42.

Turning to CAACATTGCGCAATGCACACACTTACACAT, the binding signal (log2 normalized intensity) was -1.31.

Consider TACTTTAGCTGCCAGAGGTTCTTTCACAGG, for which the binding signal (log2 normalized intensity) was 0.415.

As to TTTCTGCTCTCAACTAGAGATAAACTTTTG, the binding signal (log2 normalized intensity) is 0.481.

As to CCGCGATTCCCGCCGCCTCCGCTGGGGGAC, the binding signal (log2 normalized intensity) is -1.37.

On to AATGCGAGAGTACACAGAAGTTAATTTCAA, for which the binding signal (log2 normalized intensity) is -1.41.

Take CTTCCCAATCAGAAACCGGGCCAATGGGTT: the binding signal (log2 normalized intensity) came to 0.558.

Regarding AAGAGGCTGTCAACGGAGGTGGGAAAGACT, the binding signal (log2 normalized intensity) is -1.38.

Take TGAGCACATTCTTCAATATCAGTGGCACTC: the binding signal (log2 normalized intensity) turned out to be 0.295.

Turning to CTTCAGCTTGAAAACACAACAAAAGAACTC, the binding signal (log2 normalized intensity) was -1.37.

For the sequence TCATTTCAGCCTTAACTCAAAAGGCCAAAG, the binding signal (log2 normalized intensity) was -1.09.

With GGGGCGATGCTTCCAAAGTCCACAGTCCCC, the binding signal (log2 normalized intensity) was found to be 3.92.

For the sequence AGGGTTATGGGAAGTGGGGTAAGCAAGGCT, the binding signal (log2 normalized intensity) was -1.35.

Consider TTTGGTACTCTTATCAGCAGTGACTTGAGA, for which the binding signal (log2 normalized intensity) came out at 0.582.

As for GAAACCCTAAACCTGCAAACCTTTGACCTT, the binding signal (log2 normalized intensity) was found to be 5.96.

For the sequence AAGATAGGAATGTACATAATCTGGACCCAA, the binding signal (log2 normalized intensity) worked out at 4.38.

CAGAGGGAAGAGGAAGCATCCTATAGGCCT: the binding signal (log2 normalized intensity) is -1.34.

Turning to CTTACTTGGCCTGTTTGCTGAAGGCCATGC, the binding signal (log2 normalized intensity) was -0.877.

Consider TGCTGTCTGTCTTCGGGCGGCGGCCTCTGG, for which the binding signal (log2 normalized intensity) worked out at 0.491.

Take CAGAAAGCTCTTTGCACAGTACTGATCTGG: the binding signal (log2 normalized intensity) worked out at 0.716.

For GCCTAGGTATTGAGGGAGCAAAGGGCATGG, the binding signal (log2 normalized intensity) was found to be 4.47.

Regarding AAGTCAGGTACTGGTAGCCTGGGCCCCAGG, the binding signal (log2 normalized intensity) was -0.342.

With CAAGAATACGGATTCTTAAGGGCAAAGGTT, the binding signal (log2 normalized intensity) came to 6.75.

For the sequence TGACTGTGGTACTCCAAAGGTCAGTTTAAT, the binding signal (log2 normalized intensity) came to 4.74.

On to CCCCACTGTAGTAAGGGAGTGTGGGGTGGT, for which the binding signal (log2 normalized intensity) is -0.92.

Turning to TCTTATTGCCTCATGTTTGCAGAATGGCTG, the binding signal (log2 normalized intensity) came to 0.617.

Turning to TCTTTGCCCATAGAATCTTAGGAAAGCACA, the binding signal (log2 normalized intensity) was -1.34.

On to GGCCTTGGGCCACCTGAGACAGTTTATGCC, for which the binding signal (log2 normalized intensity) was -1.24.

Regarding GTTGGTTTCTGGGATTTGTACAAGTGATTG, the binding signal (log2 normalized intensity) is 1.63.

Take TGATGACGCCACGCCGCTCTTTCTCTTTCA: the binding signal (log2 normalized intensity) was -1.35.

Regarding AGAAATATCAGCAAGGAAATAAAAGAGCCT, the binding signal (log2 normalized intensity) is -1.32.

GATCTGGCCAGGCCTGGTTCGGGATTATGG: the binding signal (log2 normalized intensity) was determined as 0.54.

In the case of TCTCCTCCACAGAGCACAGGATCCAGAGGT, the binding signal (log2 normalized intensity) was -1.29.

With TTACAGGCAATTGATAATGATGTTTACATT, the binding signal (log2 normalized intensity) worked out at 1.34.

With GCTGGGCAGAGGGACAACTGAGTTACGTAA, the binding signal (log2 normalized intensity) is -0.77.

Turning to ATGTCATGCAGCTAAAAGCAGCATCCCTGA, the binding signal (log2 normalized intensity) is -1.19.

TTGACATAAACAGAAGCAATCACAAGGAAT: the binding signal (log2 normalized intensity) is -1.37.

With GTTTTTAAAGGCTTTTAAAGGCTAGTGAAA, the binding signal (log2 normalized intensity) is -1.3.

For CCTGAAAGAGAGGAGGCTGAAGACTTTGCA, the binding signal (log2 normalized intensity) is -1.31.

As to TGCCTTAAGTTGAAGTGAGTTGTTTGTTTT, the binding signal (log2 normalized intensity) came out at 1.66.

Regarding GACCTCATGTAGTCACATACCTATGCAAAC, the binding signal (log2 normalized intensity) turned out to be 1.02.

GCACTGGTTCAAAGTGTAGCGCAGCCAGTT: the binding signal (log2 normalized intensity) was -1.26.

Consider GTGACCTTTGACCTCAGAGAGCCGGAAACT, for which the binding signal (log2 normalized intensity) worked out at 8.02.

As to TCTGGGGCCTATCTTTCTGTCTCATTCCCT, the binding signal (log2 normalized intensity) is -1.

TGAATGGCTGATTGGCAGGCATTCCACACT: the binding signal (log2 normalized intensity) is -1.42.

As for CCATATTGACTAAACATTCTTGAATTTCGT, the binding signal (log2 normalized intensity) worked out at 0.669.

Consider AAGCCACAGTACAAAGGTGAGCTTTTATCT, for which the binding signal (log2 normalized intensity) stood at 3.65.

On to TTTGAGTCATTGAGGCTTTGCCTTAGGATT, for which the binding signal (log2 normalized intensity) was -0.614.

For AATTCCTGCTGGGCGTGAACTGTGACTTTT, the binding signal (log2 normalized intensity) was found to be 2.46.

Regarding AACAGTGGCTGGCCATGAGTGAGCACTTAA, the binding signal (log2 normalized intensity) was -1.39.

Turning to GAAGCTCTGGGAGTGCCCTTGCCGAGAGCG, the binding signal (log2 normalized intensity) is -1.41.

As for ACAGTCCACAGAAACGCAGTCCTGAAAACA, the binding signal (log2 normalized intensity) was -1.41.

Regarding AACTTTTTCCTTTTCTTATCTGTTCACAGT, the binding signal (log2 normalized intensity) was 1.4.

On to TAGGGGGCAATTTCCCTGGTCGACCTCCCC, for which the binding signal (log2 normalized intensity) was 3.01.

CAGCTGGATTGTTACATCATAGTGTTTGCC: the binding signal (log2 normalized intensity) turned out to be 1.19.

As to CCCAAGCTGTTATTCCAGGCACAAGAATGG, the binding signal (log2 normalized intensity) is -1.31.
